Assay results: PubChem BioAssay (NCI)
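Tested at 5 concentrations; 48 h exposure; 96-well plates; endpoints linearly interpolated, else capped at highest concentration. GI50 is the concentration that inhibits growth by half.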 Certain results were filed several times, with different values. Only these are listed. There may be further records. For some assays here: The tests behind the records often covered other concentration ranges, which the source does not state; a value can be the end of its range. For some assays here: Values that stand side by side repeat one measurement (runs, samples, wells, individuals or studies). Brackets tell where a record comes from. Letters count within one entry.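 TGI is the concentration that stops growth completely.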 Numbered stars: 1 amine (or outer) side, 2 acyl side, 3 side chain; on linkers, the order of the positions; unused ones are H or OH. Bridge positions count the residues as written; N and C are the ends. Square brackets hold non-standard residues; d marks the D form. Peptide text beside a SMILES is read from it. I, II: the chains in the order shown. Actinocin(9to1) = Cc1c2oc3c(C)ccc(C(=O)[*:1])c3nc-2c(C(=O)[*:2])c(N)c1=O; NMeV = CN[CH](C(=O)O)C(C)C; Sar = CNCC(=O)O

Legend:
Experiment in all cases: growth of human tumour cells (NCI), 48 h
NCI-H460 lung = tested on: NCI-H460 lung
IGROV1 ovarian = tested on: IGROV1 ovarian
T-47D breast = tested on: T-47D breast
MOLT-4 leukemia = tested on: MOLT-4 leukemia
SF-295 CNS = tested on: SF-295 CNS
SW-620 colon = tested on: SW-620 colon
SNB-19 CNS = tested on: SNB-19 CNS
HS 578T breast = tested on: HS 578T breast
HCT-116 colon = tested on: HCT-116 colon
HOP-62 NSCLC = tested on: HOP-62 NSCLC
CAKI-1 renal = tested on: CAKI-1 renal
KM12 colon = tested on: KM12 colon
A549 NSCLC = tested on: A549 NSCLC
TK-10 renal = tested on: TK-10 renal
HCT-15 colon = tested on: HCT-15 colon
U251 CNS = tested on: U251 CNS
NCI-H23 lung = tested on: NCI-H23 lung
BT-549 breast = tested on: BT-549 breast
SNB-75 CNS = tested on: SNB-75 CNS
UACC-62 melanoma = tested on: UACC-62 melanoma
SN12C renal = tested on: SN12C renal
SK-OV-3 ovarian = tested on: SK-OV-3 ovarian
MDA-MB-435 = tested on: MDA-MB-435
OVCAR-8 ovarian = tested on: OVCAR-8 ovarian
SF-539 CNS = tested on: SF-539 CNS
DU-145 prostate = tested on: DU-145 prostate
HCC-2998 colon = tested on: HCC-2998 colon
786-0 renal = tested on: 786-0 renal
MCF7 breast = tested on: MCF7 breast
UO-31 renal = tested on: UO-31 renal
OVCAR-3 ovarian = tested on: OVCAR-3 ovarian
OVCAR-5 ovarian = tested on: OVCAR-5 ovarian
MDA-MB-231 breast = tested on: MDA-MB-231 breast
NCI-H226 lung = tested on: NCI-H226 lung
NCI/ADR-RES ovarian = tested on: NCI/ADR-RES ovarian
SK-MEL-2 melanoma = tested on: SK-MEL-2 melanoma
A498 renal = tested on: A498 renal
PC-3 prostate = tested on: PC-3 prostate
SF-268 CNS = tested on: SF-268 CNS
LOX IMVI melanoma = tested on: LOX IMVI melanoma
CCRF-CEM leukemia = tested on: CCRF-CEM leukemia
MDA-N = tested on: MDA-N
M14 melanoma = tested on: M14 melanoma
HOP-92 NSCLC = tested on: HOP-92 NSCLC
MALME-3M melanoma = tested on: MALME-3M melanoma
SK-MEL-28 melanoma = tested on: SK-MEL-28 melanoma
HT29 colon = tested on: HT29 colon
ACHN renal = tested on: ACHN renal
SK-MEL-5 melanoma = tested on: SK-MEL-5 melanoma
OVCAR-4 ovarian = tested on: OVCAR-4 ovarian
SR leukemia = tested on: SR leukemia
NCI-H522 lung = tested on: NCI-H522 lung
K-562 leukemia = tested on: K-562 leukemia
EKVX NSCLC = tested on: EKVX NSCLC

## CCC1(O)CC(OC2CC(N(C)C)C(OC3CC(O)C(OC4OC(C)C(=O)C=C4N)C(C)O3)C(C)O2)c2c(cc3c(c2O)C(=O)c2c(O)cccc2C3=O)C1C(=O)OC (configuration not stated)
NCI-H460 lung
  TGI: 19.9 nM and 1.5 µM
IGROV1 ovarian
  TGI: 1.17 µM and 54.1 nM

## O=C1NC(N/N=C\C(O)C(O)C(O)C(O)CO)=N/C1=C/c1ccccc1 (configuration not stated)
T-47D breast
  GI50: > 100 µM [sample A, 1 test] and 8.92 µM [sample B, 1 test] and > 100 µM [sample C, mean of 2 tests]
MOLT-4 leukemia
  TGI: 48.8 µM [sample A, 1 test] and 6.93 µM [sample B, 1 test] and 70.6 µM [sample C, 1 test]

## CC(C)(C)c1ccc(C(O)CCCN2CCC(C(O)(c3ccccc3)c3ccccc3)CC2)cc1 (configuration not stated)
SF-295 CNS
  TGI: 46.7 µM [sample A, 1 test] and 3.06 µM [sample B, 1 test]
SW-620 colon
  TGI: 42.8 µM [sample A, 1 test] and 2.93 µM [sample B, 1 test]
SNB-19 CNS
  TGI: 49.9 µM [sample A, 1 test] and 2.93 µM [sample B, 1 test]
HS 578T breast
  TGI: 51.4 µM [sample A, 1 test] and 3.76 µM [sample B, 1 test]
HCT-116 colon
  TGI: 48.7 µM [sample A, 1 test] and 2.81 µM [sample B, 1 test]
HOP-62 NSCLC
  TGI: 48.3 µM [sample A, 1 test] and 2.7 µM [sample B, 1 test]
T-47D breast
  TGI: 49.1 µM [sample A, 1 test] and 3.07 µM [sample B, 1 test]
CAKI-1 renal
  TGI: 61.6 µM [sample A, 1 test] and 2.72 µM [sample B, 1 test]
KM12 colon
  TGI: 47.2 µM [sample A, 1 test] and 3.15 µM [sample B, 1 test]
A549 NSCLC
  TGI: 50.7 µM [sample A, 1 test] and 3.02 µM [sample B, 1 test]
TK-10 renal
  TGI: 52.7 µM [sample A, 1 test] and 3.11 µM [sample B, 1 test]
HCT-15 colon
  TGI: 48 µM [sample A, 1 test] and 3.08 µM [sample B, 1 test]
U251 CNS
  TGI: 39.2 µM [sample A, 1 test] and 2.83 µM [sample B, 1 test]
NCI-H23 lung
  TGI: 53.4 µM [sample A, 1 test] and 3 µM [sample B, 1 test]
BT-549 breast
  TGI: 47.8 µM [sample A, 1 test] and 3.05 µM [sample B, 1 test]
SNB-75 CNS
  TGI: 40.9 µM [sample A, 1 test] and 2.7 µM [sample B, 1 test]
UACC-62 melanoma
  TGI: 54.6 µM [sample A, 1 test] and 2.92 µM [sample B, 1 test]
SN12C renal
  TGI: 51.9 µM [sample A, 1 test] and 3.07 µM [sample B, 1 test]
SK-OV-3 ovarian
  TGI: 53.1 µM [sample A, 1 test] and 2.85 µM [sample B, 1 test]
MDA-MB-435
  TGI: 36.3 µM [sample A, 1 test] and 2.98 µM [sample B, 1 test]
OVCAR-8 ovarian
  TGI: 39.9 µM [sample A, 1 test] and 3.19 µM [sample B, 1 test]
SF-539 CNS
  TGI: 55.1 µM [sample A, 1 test] and 3.21 µM [sample B, 1 test]
DU-145 prostate
  TGI: 50.3 µM [sample A, 1 test] and 3.07 µM [sample B, 1 test]
HCC-2998 colon
  TGI: 30.9 µM [sample A, 1 test] and 2.79 µM [sample B, 1 test]
786-0 renal
  TGI: 50.2 µM [sample A, 1 test] and 3.05 µM [sample B, 1 test]
MCF7 breast
  TGI: 36.8 µM [sample A, 1 test] and 3.03 µM [sample B, 1 test]
UO-31 renal
  TGI: 46.7 µM [sample A, 1 test] and 2.36 µM [sample B, 1 test]
OVCAR-3 ovarian
  TGI: 49.7 µM [sample A, 1 test] and 2.98 µM [sample B, 1 test]
OVCAR-5 ovarian
  TGI: 52.8 µM [sample A, 1 test] and 3.11 µM [sample B, 1 test]
MDA-MB-231 breast
  TGI: 47.9 µM [sample A, 1 test] and 3.01 µM [sample B, 1 test]
NCI-H226 lung
  TGI: 57.8 µM [sample A, 1 test] and 2.89 µM [sample B, 1 test]
NCI/ADR-RES ovarian
  TGI: 48.7 µM [sample A, 1 test] and 3.08 µM [sample B, 1 test]
SK-MEL-2 melanoma
  TGI: 50.4 µM [sample A, 1 test] and 3.62 µM [sample B, 1 test]
A498 renal
  TGI: 54 µM [sample A, 1 test] and 2.42 µM [sample B, 1 test]
PC-3 prostate
  TGI: 45.6 µM [sample A, 1 test] and 3.32 µM [sample B, 1 test]
IGROV1 ovarian
  TGI: 46.9 µM [sample A, 1 test] and 2.87 µM [sample B, 1 test]

## Cc1c(CNc2ccc(C(=O)NC(CCCNC(=O)c3ccccc3C(=O)O)C(=O)O)cc2)cnc2nc(N)nc(N)c12 (configuration not stated)
SF-295 CNS
  TGI: 3.55 µM and > 100 µM
SF-268 CNS
  TGI: 2.58 nM, 3.38 µM, > 100 µM
HS 578T breast
  GI50: 791 nM and > 100 µM
  TGI: 769 nM, 4.11 µM, > 100 µM
HCT-116 colon
  TGI: 169 nM and > 100 µM
LOX IMVI melanoma
  TGI: 7.03 µM and > 100 µM
HOP-62 NSCLC
  TGI: 8.7 µM and > 100 µM
T-47D breast
  TGI: 5.33 µM and > 100 µM
CCRF-CEM leukemia
  TGI: 7.8 µM and > 100 µM
KM12 colon
  TGI: 7.56 µM and > 100 µM
MDA-N
  TGI: 2.01 µM and > 100 µM
NCI-H460 lung
  TGI: 558 nM and > 100 µM
TK-10 renal
  TGI: 6.83 µM and > 100 µM
M14 melanoma
  TGI: 3.4 µM and > 100 µM
NCI-H23 lung
  TGI: 1.05 µM and > 100 µM
SNB-75 CNS
  GI50: 12.1 nM and 40.4 µM
  TGI: 47.1 nM, 1.55 µM, > 100 µM
HOP-92 NSCLC
  TGI: 5.21 µM and > 100 µM
UACC-62 melanoma
  TGI: 380 nM, 1.73 µM, > 100 µM
MALME-3M melanoma
  GI50: 2.09 nM and 407 nM
  TGI: 2.73 µM and > 100 µM
MDA-MB-435
  TGI: 2.72 µM and > 100 µM
OVCAR-8 ovarian
  TGI: 1.01 µM and > 100 µM
SF-539 CNS
  TGI: 1.85 µM and > 100 µM
SK-MEL-28 melanoma
  GI50: 8.76 nM and 30.8 µM
  TGI: 3.79 µM and > 100 µM
MOLT-4 leukemia
  TGI: 3.06 µM and > 100 µM
HT29 colon
  TGI: 2.9 µM and > 100 µM
HCC-2998 colon
  TGI: 2.2 µM and 72.8 nM
ACHN renal
  TGI: 3.83 µM and > 100 µM
SK-MEL-5 melanoma
  TGI: 2.66 µM and > 100 µM
MCF7 breast
  TGI: 8.58 µM and > 100 µM
OVCAR-3 ovarian
  GI50: 1.43 µM and > 100 µM
OVCAR-5 ovarian
  GI50: 320 nM and > 100 µM
OVCAR-4 ovarian
  TGI: 8.04 µM and > 100 µM
SR leukemia
  TGI: 1.06 µM and > 100 µM
NCI-H522 lung
  TGI: 344 nM, 448 nM, > 100 µM
K-562 leukemia
  TGI: 271 nM and > 100 µM
SK-MEL-2 melanoma
  TGI: 3.38 µM and > 100 µM
IGROV1 ovarian
  TGI: 3.48 µM and > 100 µM

## Cc1c2oc3c(C)ccc(C(=O)NC4C(=O)NC(Cc5ccccc5)C(=O)N5CCCC5C(=O)N(C)CC(=O)N(C)C(C(C)C)C(=O)OC4C)c3nc-2c(C(=O)NC2C(=O)NC(Cc3ccccc3)C(=O)N3CCCC3C(=O)N(C)CC(=O)N(C)C(C(C)C)C(=O)OC2C)c(N)c1=O (configuration not stated) (I: TFP[Sar][NMeV] / II: TFP[Sar][NMeV]; ester I:1-I:C, II:1-II:C; linker I:N-II:N via Actinocin(9to1); configuration not given here)
SW-620 colon
  TGI: 41 nM and > 100 µM
LOX IMVI melanoma
  TGI: 2.16 nM and > 100 µM
NCI-H460 lung
  TGI: 1.98 µM and > 100 µM
HCT-15 colon
  TGI: 1.92 µM and > 100 µM
SN12C renal
  TGI: 772 nM and 23.7 µM
SF-539 CNS
  TGI: 18.3 nM and > 100 µM
DU-145 prostate
  TGI: 55 nM and > 100 µM
HCC-2998 colon
  TGI: 142 nM and > 100 µM
786-0 renal
  TGI: 29.8 nM and 554 nM
EKVX NSCLC
  TGI: 2.54 µM and 92 nM
SK-MEL-2 melanoma
  TGI: 4.33 nM and > 100 µM
PC-3 prostate
  TGI: 276 nM and > 100 µM
